Measurements published in the supplement of paper PMC3334620.
Over roughly 33,000 sequences, “E-score (-0.5 to 0.5)” has its median near -0.036; the highest 2% begin near 0.37. The list shows a part of the results.

Biological target: T1, Yer064c (UniProt P40041)
T1 sequence: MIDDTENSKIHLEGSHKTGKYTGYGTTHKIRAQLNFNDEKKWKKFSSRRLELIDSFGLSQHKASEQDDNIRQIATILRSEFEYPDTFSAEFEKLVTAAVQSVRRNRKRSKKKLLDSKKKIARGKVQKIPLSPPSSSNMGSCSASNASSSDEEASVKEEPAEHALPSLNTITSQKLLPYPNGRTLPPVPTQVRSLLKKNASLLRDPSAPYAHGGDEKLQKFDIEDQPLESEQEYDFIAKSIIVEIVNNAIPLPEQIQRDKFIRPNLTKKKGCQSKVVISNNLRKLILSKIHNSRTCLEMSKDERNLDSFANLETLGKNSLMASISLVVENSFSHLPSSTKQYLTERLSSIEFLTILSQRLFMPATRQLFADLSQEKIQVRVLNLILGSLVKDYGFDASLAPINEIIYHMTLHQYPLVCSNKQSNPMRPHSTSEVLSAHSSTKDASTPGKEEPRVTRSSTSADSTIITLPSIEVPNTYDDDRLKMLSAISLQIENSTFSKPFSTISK
Experiment: PBM E-score (8-mer binding enrichment) (E-score (-0.5 to 0.5)); higher = stronger / more preferred TF binding; most listed sequences are background and not binding sites
Conditions: protein concentration: 200 nM; construct: GST-full length
Method in brief: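 Yeast transcription factors carrying a GST tag, as full-length proteins or DNA-binding domains, were produced by PURExpress in vitro transcription/translation. About 100-200 nM protein was applied to universal all-10-mer Agilent arrays, double-stranded by primer extension on fresh or once-stripped slides. Bound protein was detected with fluorescent anti-GST, and scans were normalised with masliner. The Universal PBM Analysis Suite gave each ungapped eight-base word, pooled with its reverse complement, an E-score, a modified Wilcoxon-Mann-Whitney statistic.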

Sequence | PBM E-score
CCGGTCAC | 0.0146
AGGGACCA | -0.164
AGTCTACC | 0.196
ACTGTTAG | 0.103
GCTCCGCC | -0.184
GCACGAGC | -0.168
ACGTTCGG | -0.111
AGAAACAT | -0.0247
GCATAGAC | -0.0303
AGGACAGC | -0.109
GACACCCC | 0.0388
CACTAACC | -0.153
ACAAGTGA | 0.11
CGAAGTGA | 0.178
AAGACGAT | -0.0404
ATGAGCAA | 0.102
GCGTACTA | 0.0745
AGCGCGCC | -0.341
AAAGGTAC | 0.0276
AATCGATG | 0.196
ATACTGAG | 0.171
CATGTCAC | -0.0241
TCCCCCGA | -0.176
CCAAAATA | 0.0881
ATGCGAAG | -0.0967

Sequence | PBM E-score
ATCCGAGG | 0.103
AGGTTGCA | -0.138
CAGGCCAG | -0.188
CCAGGAGG | -0.203
AAATCGAA | -0.104
GATGGTTA | 0.343
CAGACAAG | -0.0699
ATTAGAAG | 0.132
CAACAGAA | 0.109
CTAAATGC | 0.0741
GGGGGAAA | -0.361
AAAGGGAA | 0.111
CAGTATAC | 0.185
AACGAATG | 0.0336
CGGGGTTC | -0.169
CAAATACG | -0.144
ATTCAGCA | 0.228
CAAAGAGC | -0.11
GGAGCCCC | -0.339
CTTTTCAA | 0.0744
GAAAATAC | -0.116
CGTAGACA | -0.0345
TGCCCCAA | 0.0126
GAGGTTAC | 0.00602
CGCCGAGC | -0.123

Sequence | PBM E-score
CCTTGTGC | -0.043
CCGTAAAG | -0.0714
AAATCATG | 0.385
CTGGTGGA | -0.0161
GGCGCCCA | -0.127
ATAGCCTA | 0.00883
ATAACGGA | -0.0212
AGGCTTAT | 0.0335
GCTGCTAA | -0.0595
AATACAGG | -0.138
CGTGCAAC | 0.0096
GTCTTAGA | 0.162
ACGCGCCC | -0.175
GTTGGCTA | -0.135
AACAGATC | -0.107
GGGTTACC | -0.17
CCAGTCCG | -0.241
CCATTATC | -0.0156
TAATCAGA | 0.35
CATTTCAC | -0.0472
GCCCTCAC | -0.101
CTCCGCAC | -0.00401
CATCTGCC | -0.0814
AACTGCTC | -0.11
CCTGGGGC | -0.255

Sequence | PBM E-score
ACATGAAT | 0.175
CGCTCTCC | -0.184
CCCCTCCA | -0.166
CTATAACA | 0.0792
ACGATGGG | -0.0235
AGATTCCC | -0.0207
ATACGCGG | -0.259
AGGGACTG | 0.00864
GCAAAAGA | -0.0521
ACGATTAG | 0.152
GTGTTTAA | 0.176
ATAGCCCG | -0.289
ATTCCTCC | -0.0909
AAGTGATT | 0.394
GGGTGAAC | 0.122
CTGTTCGA | 0.0796
CTAACGAA | 0.165
ATAGACCG | -0.0671
CTGTTGCC | -0.24
GACTTTTA | 0.0908
CTTCGCTC | -0.125
CAGCTGGG | -0.136
GGTTAATA | 0.11
GAAATCCA | -0.168
CTGCCGTC | -0.151

Sequence | PBM E-score
AGACTACC | 0.354
GCATAGCC | -0.248
ATCAAACC | 0.149
CGTGGATA | -0.117
AACGAGTA | 0.171
AGCACACT | -0.113
ACGTTCAG | -0.206
GCGGTACA | -0.0623
ATCCAGTC | 0.16
AAGCGGTC | -0.0189
CAATTGTA | -0.187
ATCAGATC | -0.0452
ACAACCCC | -0.282
GATGGTAC | -0.161
CCTTAGCC | -0.021
TCTAAAGA | 0.0774
ACGGGCAC | -0.243
ACTCCGGA | 0.22
AACGGATA | -0.189
CCAGTCAA | 0.15
AACCTTAT | -0.276
AATAGATC | -0.0463
CGCGAGGC | -0.0971
AATAATGA | 0.195
GAAAATGA | 0.206

Sequence | PBM E-score
ATGCGAAT | 0.0322
AGACCAAG | 0.022
ACCGGTAC | -0.12
GAATGCAA | -0.194
CGATAAGC | -0.182
TGGAGGAA | -0.127
AGATAGGG | -0.011
CGATTCTA | 0.0229
CTGCCAAA | -0.0242
CTACCGCC | -0.259
AGTCCACT | 0.216
AAGAAGGT | -0.0694
AAAAGTCC | -0.0242
AGAAGGCC | -0.254
AAGAACGG | -0.199
AAGTCATC | 0.471
ATTGCAAG | 0.0515
AGGCAGAA | -0.00358
CCCGAAAG | -0.136
CATGTGGC | 0.151
AAGGCTAT | -0.0536
AGATCACA | -0.0293
CCACTTAC | -0.02
CTAGCCGC | -0.119
AGAGATCC | -0.34

Sequence | PBM E-score
GGCGCGCC | -0.0872
ACTACAAT | 0.226
GGAAGTTA | 0.0315
ATTTCCCA | 0.00335
ATAACACG | -0.159
AGGCATCC | -0.114
GGTTCATA | -0.0107
CCCCCCGG | -0.258
AATCAAAC | 0.236
CCCTGTGA | 0.133
CGAACAGC | -0.134
CCTGTTAC | -0.158
CTGTGAAG | -0.0231
GTTGCTAA | -0.138
CGATCTAC | -0.141
CTATATAC | 0.0403
CCAACAGG | -0.346
ACCTGATA | -0.0984
CCCGTTCA | -0.213
AAAGGGGG | -0.377
TTGACAAA | 0.028
GTGGCTAA | 0.26
GGTACTAA | -0.0535
ACAATCGT | -0.00128
ACGATCCC | -0.157

Sequence | PBM E-score
CCAAGCGG | -0.109
AGAGCAAG | 0.00177
ACACGAGT | 0.193
CGTCCATA | -0.0406
GCGGTATA | -0.0917
GGCCACCA | -0.109
CGGAATTA | -0.0336
CTTATCAC | -0.00234
GGATGCGA | -0.117
ATTCCATC | 0.0991
ACCCTATA | -0.137
AGGAAACT | -0.178
AAAGATAA | 0.0173
CGGGCGGA | -0.203
GGCCTTAC | -0.206
CAGGACCG | -0.153
AAATGATC | 0.121
CGGGCTCC | -0.307
CTACAGGA | 0.0425
ATGCTTCG | -0.0134
CGTGTGTC | -0.0746
GCCAATTA | 0.0589
ACGTTTAG | -0.00153
ACAGGATC | -0.161
CTCACGTC | 0.0109

Sequence | PBM E-score
GAAACGAA | 0.0935
AAAATATG | 0.0603
CGGGACTA | 0.168
CCACATGA | 0.169
GAAGTGAC | 0.197
CCCAATTA | -0.0776
CGAAGGGC | -0.337
CGACCTCG | 0.0278
ACAATAAT | 0.127
TCACGAGA | 0.199
ACTGAAGC | 0.132
CACTCCTG | -0.0809
GCACCAGA | -0.283
CCGCTTTC | -0.0764
AGCCGCAA | -0.187
GGGCTTCA | -0.168
ATAGTCAG | 0.454
CAAACGCG | -0.0471
ATTACCTC | -0.0785
